Results taken from the supplement of paper PMC4967469.
A lower IC50 marks a more sensitive line; fits outside the tested doses are given as limits. The AUC spans the tested range (256-fold, ending at the top dose) of the same fit; values near 1 show little effect. For part of these data: Any top dose called inferred comes from the curve model; the source does not state it. For part of these data: An entry number marks a drug with two screens in the source, which often give different values.

Tests used:
Assay in all cases: Viability of human cancer cell lines after 72 h of drug (GDSC screen)
[1] = compound: C/C=C(/C)C(=O)O[C@H]1C(C)=C2[C@H]([C@@H]1OC(=O)CCCCCCC)[C@@](C)(OC(C)=O)C[C@H](OC(=O)CCC)[C@@]1(O)[C@H]2OC(=O)[C@@]1(C)O [Thapsigargin]; settings: top dose 0.512 µM; top dose inferred
Protocol: (§1)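 Human cancer cell lines in 384-well plates, medium with 10% serum, drug for 72 h over a 256-fold dose range (nine 2-fold or five 4-fold steps up to the top dose). Adherent lines were fixed and stained with the nucleic acid dye Syto60, suspension lines read with resazurin; signal relative to control wells, capped at 0 and 100%. One two-parameter sigmoid per drug and line, fitted in a mixed model over all curves with the slope shared within a line.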

[2] = compound: C=CC(=O)Nc1cc(-n2c(=O)ccc3cnc4ccc(-c5cn[nH]c5)cc4c32)ccc1C [QL-X-138]; settings: top dose 10.24 µM; top dose inferred
Protocol: as §1

[3] = compound: CCn1c(-c2nonc2N)nc2cnc(Oc3cccc(NC(=O)c4ccc(OCCN5CCOCC5)cc4)c3)cc21 [GSK269962A]; settings: top dose 5 µM; screen: GDSC drug entry 1192; top dose inferred
Protocol: as §1

[4] = compound: COc1cc(N2CCC(O)CC2)ccc1Nc1cc(Nc2ccccc2S(=O)(=O)C(C)C)c2cc[nH]c2n1 [MPS-1-IN-1]; settings: top dose 20 µM; top dose inferred
Protocol: as §1

[5] = compound: COc1cc(O)c2c(c1)/C=C/C[C@H](O)[C@H](O)C(=O)/C=C\C[C@H](C)OC2=O [(5Z)-7-Oxozeaenol]; settings: top dose 10 µM; top dose inferred
Protocol: as §1

[6] = compound: COc1cc2ncnc(-n3nc(-c4ccccn4)nc3N)c2cc1OC [CP466722]; settings: top dose 16 µM; top dose inferred
Protocol: as §1

[7] = compound: COc1nc(C)cnc1NS(=O)(=O)c1cccnc1-c1ccc(-c2nnco2)cc1 [Zibotentan]; settings: top dose 20 µM; top dose inferred
Protocol: as §1

[8] = compound: C[C@]1(c2nc3c(C(N)=O)cccc3[nH]2)CCCN1 [ABT-888]; settings: top dose 5 µM; top dose inferred
Protocol: as §1

[9] = compound: Cc1ccc(F)c(NC(=O)Nc2ccc(-c3cccc4[nH]nc(N)c34)cc2)c1 [ABT-869]; settings: top dose 1.024 µM; top dose inferred
Protocol: as §1

[10] = compound: Cc1cnc(-c2cnc(NCCNc3ccc(C#N)cn3)nc2-c2ccc(Cl)cc2Cl)[nH]1 [CHIR-99021]
Protocol: as §1

[11] = compound: Nc1ccn([C@@H]2O[C@H](CO)[C@@H](O)[C@@H]2O)c(=O)n1 [Cytarabine]; settings: top dose 2 µM
Protocol: as §1

[12] = compound: O=c1cc(-c2cccc3c2Sc2ccccc2S3)oc(N2CCOCC2)c1 [KU-55933]; settings: top dose 10 µM
Protocol: as §1

[13] = top dose 2.56 µM, screen: GDSC drug entry 154
[14] = top dose 10 µM, screen: GDSC drug entry 1241, top dose inferred

Cell Line	AUC [1]	IC50 [1]	AUC [2]	IC50 [2]	AUC [3]	IC50 [3]	AUC [4]	IC50 [4]	AUC [5]	IC50 [5]	AUC [6]	IC50 [6]	AUC [7]	IC50 [7]	AUC [8]	IC50 [8]	AUC [9]	IC50 [9]	AUC [10, 13]	IC50 [10, 13]	AUC [10, 14]	IC50 [10, 14]	AUC [11]	IC50 [11]	AUC [12]	IC50 [12]
OAW-42 (ovary, adherent)	0.454	0.0237 µM	0.847	8.48 µM	0.945	> 5 µM	0.976	> 20 µM	0.515	0.691 µM	0.867	> 16 µM	0.984	> 20 µM	0.984	> 5 µM	0.984	> 1.02 µM	0.986	> 2.56 µM	0.957	> 10 µM	0.825	1.33 µM	0.956	> 10 µM
OE19 (oesophagus, adherent)	0.52		0.984	> 10.2 µM	0.899	> 5 µM	0.986	> 20 µM	0.832	7.56 µM	0.972	> 16 µM	0.985	> 20 µM	0.973	> 5 µM	0.984	> 1.02 µM	0.894	> 2.56 µM	0.885	> 10 µM	0.779	0.931 µM	0.967	> 10 µM
OE21 (oesophagus, adherent)	0.166	< 0.002 µM	0.943	> 10.2 µM	0.874	> 5 µM	0.936	> 20 µM	0.744	4.16 µM	0.935	> 16 µM	0.975	> 20 µM	0.944	> 5 µM	0.972	> 1.02 µM	0.939	> 2.56 µM	0.931	> 10 µM	0.773	1.09 µM	0.915	> 10 µM
OE33 (oesophagus, adherent)	0.386	0.0146 µM	0.907	> 10.2 µM	0.957	> 5 µM	0.889	> 20 µM	0.706	2.68 µM	0.925	> 16 µM	0.978	> 20 µM	0.974	> 5 µM	0.969	> 1.02 µM	0.976	> 2.56 µM	0.9	> 10 µM	0.777	0.964 µM	0.959	> 10 µM
OSC-20 (head and neck, adherent)	0.34	0.0105 µM	0.747	3.82 µM	0.942	> 5 µM	0.919	> 20 µM	0.703	2.62 µM	0.827	12.3 µM	0.981	> 20 µM	0.955	> 5 µM	0.976	> 1.02 µM	0.982	> 2.56 µM	0.98	> 10 µM	0.826	1.53 µM	0.918	> 10 µM
OV-90 (ovary, adherent)	0.205	0.00322 µM	0.84	10.2 µM	0.926	> 5 µM	0.921	> 20 µM	0.875	> 10 µM	0.798	10.2 µM	0.981	> 20 µM	0.962	> 5 µM	0.977	> 1.02 µM	0.98	> 2.56 µM	0.979	> 10 µM	0.85	> 2 µM	0.971	> 10 µM
OVISE (ovary, adherent)	0.608	0.0701 µM	0.743	4.1 µM	0.961	> 5 µM	0.958	> 20 µM	0.627	1.58 µM	0.828	14.5 µM	0.979	> 20 µM	0.951	> 5 µM	0.976	> 1.02 µM	0.971	> 2.56 µM	0.897	> 10 µM	0.891	> 2 µM	0.895	> 10 µM
OVKATE (ovary, adherent)	0.788	0.42 µM	0.849	> 10.2 µM	0.977	> 5 µM	0.867	> 20 µM	0.946	> 10 µM	0.862	> 16 µM	0.926	> 20 µM	0.978	> 5 µM	0.979	> 1.02 µM	0.979	> 2.56 µM	0.862	> 10 µM	0.822	> 2 µM	0.975	> 10 µM
OVMIU (ovary, adherent)	0.377	0.0135 µM	0.696	2.64 µM	0.922	> 5 µM	0.886	> 20 µM	0.665	2.02 µM	0.771	7.64 µM	0.968	> 20 µM	0.981	> 5 µM	0.976	> 1.02 µM	0.953	> 2.56 µM	0.774	4.91 µM	0.664	0.402 µM	0.972	> 10 µM
OVTOKO (ovary, adherent)	0.461	0.0243 µM	0.818	7.88 µM	0.714	1.51 µM	0.939	> 20 µM	0.659	1.96 µM	0.805	10.9 µM	0.976	> 20 µM	0.962	> 5 µM	0.976	> 1.02 µM	0.887	> 2.56 µM	0.911	> 10 µM	0.68	0.458 µM	0.843	> 10 µM
PA-TU-8902 (pancreas, adherent)	0.402	0.0164 µM	0.688	2.37 µM	0.95	> 5 µM	0.791	10.7 µM	0.447	0.437 µM	0.838	13.6 µM	0.979	> 20 µM	0.983	> 5 µM	0.982	> 1.02 µM	0.983	> 2.56 µM	0.928	> 10 µM	0.774	0.924 µM	0.951	> 10 µM
PANC-02-03 (pancreas, adherent)	0.643	0.0863 µM	0.875	> 10.2 µM	0.932	> 5 µM	0.803	12.4 µM	0.583	1.1 µM	0.918	> 16 µM	0.97	> 20 µM	0.971	> 5 µM	0.973	> 1.02 µM	0.979	> 2.56 µM	0.967	> 10 µM	0.79	1.1 µM	0.943	> 10 µM
PANC-03-27 (pancreas, adherent)	0.126	0.00231 µM	0.785	4.09 µM	0.987	> 5 µM	0.869	16.5 µM	0.642	1.5 µM	0.803	7.36 µM	0.987	> 20 µM	0.978	> 5 µM	0.956	> 1.02 µM	0.977	> 2.56 µM	0.912	> 10 µM	0.797	0.877 µM	0.964	> 10 µM
PANC-04-03 (pancreas, adherent)	0.433	0.0188 µM	0.866	> 10.2 µM	0.975	> 5 µM	0.967	> 20 µM	0.72	3.89 µM	0.944	> 16 µM	0.972	> 20 µM	0.975	> 5 µM	0.976	> 1.02 µM	0.976	> 2.56 µM	0.965	> 10 µM	0.905	> 2 µM	0.942	> 10 µM
PC-3 [JPC-3] (lung adenocarcinoma, adherent)	0.585	0.0592 µM	0.66	2.07 µM	0.921	> 5 µM	0.923	> 20 µM	0.761	4.68 µM	0.729	5.67 µM	0.978	> 20 µM	0.981	> 5 µM	0.978	> 1.02 µM	0.977	> 2.56 µM	0.959	> 10 µM	0.871	> 2 µM	0.959	> 10 µM
PCI-6A (head and neck, adherent)	0.194	0.00404 µM	0.663	1.8 µM	0.986	> 5 µM	0.881	> 20 µM	0.965	> 10 µM	0.896	> 16 µM	0.983	> 20 µM	0.956	> 5 µM	0.982	> 1.02 µM	0.988	> 2.56 µM	0.978	> 10 µM	0.677	0.386 µM	0.923	> 10 µM
PCI-15A (head and neck, adherent)	0.397	0.0167 µM	0.836	6.85 µM	0.963	> 5 µM	0.986	> 20 µM	0.787	4.39 µM	0.851	12.4 µM	0.976	> 20 µM	0.875	4.97 µM	0.982	> 1.02 µM	0.986	> 2.56 µM	0.956	> 10 µM	0.987	> 2 µM	0.717	2.58 µM
PCI-30 (head and neck, adherent)	0.891	> 0.512 µM	0.901	> 10.2 µM	0.887	> 5 µM	0.96	> 20 µM	0.741	3.65 µM	0.965	> 16 µM	0.979	> 20 µM	0.927	> 5 µM	0.974	> 1.02 µM	0.968	> 2.56 µM	0.927	> 10 µM	0.781	1.03 µM	0.967	> 10 µM
PE/CA-PJ15 (head and neck, adherent)	0.979	> 0.512 µM	0.898	> 10.2 µM	0.945	> 5 µM	0.948	> 20 µM	0.66	1.81 µM	0.959	> 16 µM	0.985	> 20 µM	0.941	> 5 µM	0.982	> 1.02 µM	0.986	> 2.56 µM	0.958	> 10 µM	0.85	1.71 µM	0.918	> 10 µM
PL4 (pancreas, adherent)	0.493	0.0306 µM	0.903	> 10.2 µM	0.976	> 5 µM	0.974	> 20 µM	0.591	1.12 µM	0.94	> 16 µM	0.987	> 20 µM	0.987	> 5 µM	0.982	> 1.02 µM	0.987	> 2.56 µM	0.962	> 10 µM	0.865	1.87 µM	0.953	> 10 µM
